We go through 40 sequences from the supplement of paper PMC6531468.

Some of the results follow. Read counts after selection give these values, which scatter widely. Each score is taken over the longer molecules that contain the sequence shown.

In the experiment the test system is IMP3 KH1-4. As to the kind of experiment: 6-mer SELEX enrichment z-score vs GST control; IMP3 is the RNA-binding protein IGF2BP3; higher = more enriched by binding. The conditions noted are these: construct: KH1-4 (164-579); SELEX round: R4. As for the experimental part: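 SELEX-seq with GST-tagged IMP3 KH1-4 (Pro164-Lys579) and an N40 RNA pool, round 4. 6-mer z-score of sequence-tag enrichment normalised to the corresponding GST SELEX round; RNA k-mers written as DNA (T for U).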
IMP3 KH1-4, sequence (chain, as listed by the source): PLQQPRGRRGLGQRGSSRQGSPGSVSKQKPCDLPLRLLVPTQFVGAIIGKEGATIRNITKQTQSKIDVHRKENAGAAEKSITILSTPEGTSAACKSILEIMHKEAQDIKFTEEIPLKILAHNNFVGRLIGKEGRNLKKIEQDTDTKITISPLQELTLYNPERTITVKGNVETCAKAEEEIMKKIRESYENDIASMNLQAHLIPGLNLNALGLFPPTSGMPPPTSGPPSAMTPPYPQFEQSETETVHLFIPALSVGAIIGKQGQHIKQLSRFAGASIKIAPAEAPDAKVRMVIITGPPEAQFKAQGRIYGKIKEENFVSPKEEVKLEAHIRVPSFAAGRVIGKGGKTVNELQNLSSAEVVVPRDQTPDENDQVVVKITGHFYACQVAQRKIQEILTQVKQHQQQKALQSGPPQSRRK
On to ATGACT, for which the “6-mer SELEX enrichment z-score” value worked out at 0.602.

For TAAGGA, the “6-mer SELEX enrichment z-score” value was found to be 0.685.

As to CAATAC, the “6-mer SELEX enrichment z-score” value turned out to be 1.03.

Turning to TACGGA, the “6-mer SELEX enrichment z-score” value was 0.32.

With CACAAC, the “6-mer SELEX enrichment z-score” value was 1.03.

On to GATAAC, for which the “6-mer SELEX enrichment z-score” value was 0.639.

With CGTCGT, the “6-mer SELEX enrichment z-score” value was -0.476.

With GGAGGC, the “6-mer SELEX enrichment z-score” value was 0.779.

Consider GCGTGC, for which the “6-mer SELEX enrichment z-score” value is -0.725.

On to ATAAAG, for which the “6-mer SELEX enrichment z-score” value came to 0.8.

GGAGTG: the “6-mer SELEX enrichment z-score” value was 0.128.

Turning to GTTACT, the “6-mer SELEX enrichment z-score” value was determined as 0.016.

As for TTCGCC, the “6-mer SELEX enrichment z-score” value was found to be 0.161.

For the sequence TCCCCC, the “6-mer SELEX enrichment z-score” value came out at 0.632.

TTTGCT: the “6-mer SELEX enrichment z-score” value is 0.431.

Turning to GGAACC, the “6-mer SELEX enrichment z-score” value is -1.22.

Take CGCTGG: the “6-mer SELEX enrichment z-score” value was -0.122.

As for TGCCTA, the “6-mer SELEX enrichment z-score” value is -0.726.

As for GCATAG, the “6-mer SELEX enrichment z-score” value was -0.207.

Regarding GACACC, the “6-mer SELEX enrichment z-score” value is -0.826.

TTTACG: the “6-mer SELEX enrichment z-score” value amounted to 0.47.

As to AAGGAT, the “6-mer SELEX enrichment z-score” value was 0.848.

On to GAGAAC, for which the “6-mer SELEX enrichment z-score” value is -0.314.

With AAGGTT, the “6-mer SELEX enrichment z-score” value was -0.077.

For TAGGTC, the “6-mer SELEX enrichment z-score” value was determined as 0.154.

On to CCAATA, for which the “6-mer SELEX enrichment z-score” value came to 0.313.

For the sequence AGAAAG, the “6-mer SELEX enrichment z-score” value came to 0.085.

As for ATCAAC, the “6-mer SELEX enrichment z-score” value was 0.639.

Take TCATTT: the “6-mer SELEX enrichment z-score” value amounted to 1.37.

In the case of CTCATC, the “6-mer SELEX enrichment z-score” value stood at 0.191.

For the sequence TGCTCA, the “6-mer SELEX enrichment z-score” value was -0.147.

Turning to CTAGTA, the “6-mer SELEX enrichment z-score” value was -0.127.

ATAGAG: the “6-mer SELEX enrichment z-score” value is 0.352.

Take GCTTCT: the “6-mer SELEX enrichment z-score” value was -0.116.

For TTATCT, the “6-mer SELEX enrichment z-score” value was 0.518.

Consider AGGCTC, for which the “6-mer SELEX enrichment z-score” value was 0.04.

For the sequence GATAAG, the “6-mer SELEX enrichment z-score” value came to 0.695.

On to TAAAGT, for which the “6-mer SELEX enrichment z-score” value is 0.19.

As to TGTCGG, the “6-mer SELEX enrichment z-score” value came to 0.728.

With ACGCCC, the “6-mer SELEX enrichment z-score” value was -0.865.
